Reference: US9902776B2, “Anti-EGFR antibody and anti-c-Met/anti-EGFR bispecific antibodies comprising the same” (Samsung Electronics Co., Ltd., priority 2013, dated 2018)

How the values were obtained:
Conditions in all cases: rank among huAbF46-H4-A1, -A2, -A3, -A5
[1] = target: T1, c-Met (Homo sapiens, UniProt P08581); assay: c-Met degradation degree of the four affinity-matured antibodies; type: cell-based; design: endogenous in cells; host or cells: SNU638 (A8, A11); MKN45 (A11)
[2] = target: T1, c-Met; assay: Affinity for c-Met of the four affinity-matured antibodies; type: binding; design: endogenous in cells; host or cells: SNU638 (A8, A11); MKN45 (A11)
[3] = test system: Akt; assay: Akt phosphorylation by the four affinity-matured antibodies; type: cell-based

T1 sequence (P08581 25-1390): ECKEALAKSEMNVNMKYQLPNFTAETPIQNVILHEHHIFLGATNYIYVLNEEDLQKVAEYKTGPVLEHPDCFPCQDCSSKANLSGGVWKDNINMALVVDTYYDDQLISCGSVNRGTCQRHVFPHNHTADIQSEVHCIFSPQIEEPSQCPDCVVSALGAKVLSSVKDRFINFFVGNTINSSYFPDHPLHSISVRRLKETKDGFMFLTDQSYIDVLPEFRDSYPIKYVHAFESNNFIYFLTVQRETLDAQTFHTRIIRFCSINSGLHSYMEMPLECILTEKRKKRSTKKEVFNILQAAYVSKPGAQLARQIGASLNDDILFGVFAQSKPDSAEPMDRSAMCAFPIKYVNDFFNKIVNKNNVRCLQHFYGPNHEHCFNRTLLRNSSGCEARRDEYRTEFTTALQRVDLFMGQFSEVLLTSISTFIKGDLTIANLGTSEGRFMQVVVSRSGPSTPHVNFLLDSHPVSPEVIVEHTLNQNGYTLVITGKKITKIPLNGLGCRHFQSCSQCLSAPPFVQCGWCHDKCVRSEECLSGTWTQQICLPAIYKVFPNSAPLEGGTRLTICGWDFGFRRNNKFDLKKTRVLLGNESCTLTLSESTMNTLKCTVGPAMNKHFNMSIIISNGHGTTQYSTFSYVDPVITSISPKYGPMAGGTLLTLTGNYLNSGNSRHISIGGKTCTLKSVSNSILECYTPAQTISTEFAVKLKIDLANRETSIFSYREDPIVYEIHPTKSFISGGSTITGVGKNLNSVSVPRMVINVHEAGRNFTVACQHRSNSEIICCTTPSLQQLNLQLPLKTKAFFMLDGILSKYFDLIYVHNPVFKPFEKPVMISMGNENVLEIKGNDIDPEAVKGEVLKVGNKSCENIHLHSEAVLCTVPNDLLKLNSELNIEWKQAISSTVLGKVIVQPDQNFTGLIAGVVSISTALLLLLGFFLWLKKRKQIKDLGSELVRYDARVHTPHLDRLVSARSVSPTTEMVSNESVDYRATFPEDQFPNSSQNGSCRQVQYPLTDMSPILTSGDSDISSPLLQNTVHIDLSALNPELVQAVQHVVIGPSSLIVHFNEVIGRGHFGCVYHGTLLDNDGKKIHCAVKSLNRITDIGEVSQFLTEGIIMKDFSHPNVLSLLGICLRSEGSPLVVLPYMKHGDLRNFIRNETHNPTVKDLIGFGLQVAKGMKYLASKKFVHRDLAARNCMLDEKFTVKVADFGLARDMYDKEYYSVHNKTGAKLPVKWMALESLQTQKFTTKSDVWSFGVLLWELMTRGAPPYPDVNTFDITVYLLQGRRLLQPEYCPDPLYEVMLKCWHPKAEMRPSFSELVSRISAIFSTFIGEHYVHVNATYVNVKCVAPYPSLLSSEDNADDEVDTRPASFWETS

B1: huAbF46-H4-A1: affinity-matured humanized anti-c-Met antibody, L3-1 origin (antibody)
heavy: EVQLVESGGGLVQPGGSLRLSCAASGFTFTDYYMSWVRQAPGKGLEWLGFIRNKANGYTTEYSASVKGRFTISRDNSKNTLYLQMNSLRAEDTAVYYCARDNWFAYWGQGTLVTVSSASTKGPSVFPLAPSSKSTSGGTAALGCLVKDYFPEPVTVSWNSGALTSGVHTFPAVLQSSGLYSLSSVVTVPSSSLGTQTYICNVNHKPSNTKVDKKVEPKSCDCH[human IgG1 Fc not written out]
light: DIQMTQSPSSLSASVGDRVTITCKSSQSLLASGNQNNYLAWHQQKPGKAPKMLIIWASTRVSGVPSRFSGSGSGTDFTLTISSLQPEDFATYYCQQSYSRPYTFGQGTKVEIKRTVAAPSVFIFPPSDEQLKSGTASVVCLLNNFYPREAKVQWKVDNALQSGNSQESVTEQDSKDSTYSLSSTLTLSKADYEKHKVYACEVTHQGLSSPVTKSFNRGEC
- c-Met degradation degree among the four selected antibodies [1]: lowest
- affinity for c-Met among the four selected antibodies [2]: highest
- Akt phosphorylation among the four selected antibodies [3]: lowest
